# According to the RNAGym collection of RNA variant scans (doi:10.7554/elife.90254):
# The source gives no read counts; variants with many changes may rest on few reads.
# B1: OR4K15 (parent)
# chain: GUUAACGGUCAUAGGCCAUGGAAACUAGGAGCACCAUUUCGCUGCCAGUGAAGAAAUGAACAAAGAAAAUCUGGGCCAGGCAGGCAUCAAAAGAAAUAGUCUUGCGCUCAACCAGAAAGUCUGUAAUCAUUUUAAGGGUA
# Variants of: B1
# Assay: self-cleavage, relative activity (ratio to wild type); higher = more cleavage; in vitro, sequencing; the parent is a self-cleaving ribozyme
row,Variant,self-cleavage
1,A33G A47G A90G A116G A117G,0.16
2,G31A U72C A82U,0.18
3,A33G A110G A114G A140U,0.03
4,A33G U43A A114U,0.08
5,A30U A95G G106A,0
6,A33G U103C U122C,0.26
7,A33G A55G U122C,0.42
8,A33G U57A A59G A78G G79A,0.14
9,A30G A68G U87A A96G,2.17
10,A33U U38C A54U A62G U103A A129G,0.56
11,C32U A62G A68G,1.04
12,A30G U38C A63U U97A A98C U100C A126U,1.99
13,A33C A125G U130C,0.87
14,A30G U102C A117G,1.62
15,A33U A52G U122A,1.95
16,A33C U72C U131C,0.25
17,A33G A126G A140G,0.83
18,G31A A55G U130C,1.32
19,A30G A78G A86G A91G,0.02
20,A33G U49C A96G,1.37
21,A30G G74U A89U U102G,0.05

row,Variant,self-cleavage
1,A30G A56G U131C,0.65
2,A30U U57G A86G U132A,0.97
3,A30U A36G A117G U132A,0.82
4,A33G A89G A116G,0.27
5,A33G U43A U130C,0
6,A30G U37A U130A,1.47
7,A30G U39C A51G A63G U132C,1.34
8,A33C A63G A68G C77U,1.46
9,G31A U127C U130C,0.8
10,C32U G83C U131C,0
11,C32U A125G U130C,0.23
12,A30G U43C G74A A82G,0.36
13,A30U A33C A68G U132C,0.72
14,A33G C77U G84A A114G,0.54
15,A33G A55G G106A U120C,0.01
16,A33G U103A U127A,0.92
17,A33G U49C A78G A82U,0.06
18,A33C A52G A59G,1.46
19,A33U A96U U130C,2.05
20,A33C U57C C76U A92G U100C,0.26
21,G31A A33G A68G A110G,0.19

row,Variant,self-cleavage
1,A30G A56G A94G,1.47
2,A30G U37C U49C A60G A96G,1.22
3,A30U A51G A96G,1.54
4,A33G A60G U139G,1.26
5,A30G U43C A66G A90U A95G U127G,1.8
6,A30G U37C A140G,1.06
7,A30G A90G U100A U127C,0.29
8,A30U A68G A78U U127C,0.19
9,A30G A62U A64U A98G,0.24
10,A33G A59G A90G,0.9
11,A30G U43A A54G,0.59
12,A33G A56U A89G U120C,0.13
13,A30G A63G A110U,1.41
14,A33G U43G A68G A69G A82G,0.24
15,A33G C45A A51U A86G U108A G136U,0.04
16,A33G U49C A69G A95G,1.23
17,C32U U39C A51G A95U A96G U100C A117G,0.68
18,A30G A94G U131A,1.13
19,A30G C85U A94G U103C U130A,0.12
20,G31A A54G A92G U122C,2.24
21,A30G A82G U103C U130C,1.92

row,Variant,self-cleavage
1,A33U A55U A78G,0.54
2,A33G U43C U57A A116U,0.18
3,A33G U57A U130A,0.62
4,A33G A59G U127A,1.5
5,A33U A66G A82U,0.49
6,A33G G41C A68G U139A,1.19
7,A30U U103C A110G,0.17
8,A33G U57C A95G A117U,0.57
9,A33G U39C U87C U103C,0.43
10,C32G A86G U127C,0.9
11,A33G A36G U97C,0.76
12,A30G U37C A60G,1.85
13,A33G U122C A135G,0.54
14,A30U A67G A90G,1.17
15,A30U A64U A69G U122C,0.5
16,C32U A89G U120C,0.67
17,A30G U87C U108A,0.02
18,A33G U43A U87C,0.29
19,A30G U37A A140G,1.64
20,A33G U38A A95G C105U,0.83
